Measured values taken from paper PMC4336329 (PLoS ONE, 2015).
About 14,000 (4.5%) of roughly 310,000 compounds showed an effect of 50% or more. The effect is printed as a negative number. The list shows a part of the results.
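Further: peak tail current of the secondary pulse compared with the same well before compound.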

The compounds below were run against human ether-à-go-go-related gene (hERG) potassium channel (human, UniProt Q12809) (assay: primary screen, population patch clamp on CHO cells stably expressing hERG).
human ether-à-go-go-related gene (hERG) potassium channel, sequence (Q12809 whole entry, looked up): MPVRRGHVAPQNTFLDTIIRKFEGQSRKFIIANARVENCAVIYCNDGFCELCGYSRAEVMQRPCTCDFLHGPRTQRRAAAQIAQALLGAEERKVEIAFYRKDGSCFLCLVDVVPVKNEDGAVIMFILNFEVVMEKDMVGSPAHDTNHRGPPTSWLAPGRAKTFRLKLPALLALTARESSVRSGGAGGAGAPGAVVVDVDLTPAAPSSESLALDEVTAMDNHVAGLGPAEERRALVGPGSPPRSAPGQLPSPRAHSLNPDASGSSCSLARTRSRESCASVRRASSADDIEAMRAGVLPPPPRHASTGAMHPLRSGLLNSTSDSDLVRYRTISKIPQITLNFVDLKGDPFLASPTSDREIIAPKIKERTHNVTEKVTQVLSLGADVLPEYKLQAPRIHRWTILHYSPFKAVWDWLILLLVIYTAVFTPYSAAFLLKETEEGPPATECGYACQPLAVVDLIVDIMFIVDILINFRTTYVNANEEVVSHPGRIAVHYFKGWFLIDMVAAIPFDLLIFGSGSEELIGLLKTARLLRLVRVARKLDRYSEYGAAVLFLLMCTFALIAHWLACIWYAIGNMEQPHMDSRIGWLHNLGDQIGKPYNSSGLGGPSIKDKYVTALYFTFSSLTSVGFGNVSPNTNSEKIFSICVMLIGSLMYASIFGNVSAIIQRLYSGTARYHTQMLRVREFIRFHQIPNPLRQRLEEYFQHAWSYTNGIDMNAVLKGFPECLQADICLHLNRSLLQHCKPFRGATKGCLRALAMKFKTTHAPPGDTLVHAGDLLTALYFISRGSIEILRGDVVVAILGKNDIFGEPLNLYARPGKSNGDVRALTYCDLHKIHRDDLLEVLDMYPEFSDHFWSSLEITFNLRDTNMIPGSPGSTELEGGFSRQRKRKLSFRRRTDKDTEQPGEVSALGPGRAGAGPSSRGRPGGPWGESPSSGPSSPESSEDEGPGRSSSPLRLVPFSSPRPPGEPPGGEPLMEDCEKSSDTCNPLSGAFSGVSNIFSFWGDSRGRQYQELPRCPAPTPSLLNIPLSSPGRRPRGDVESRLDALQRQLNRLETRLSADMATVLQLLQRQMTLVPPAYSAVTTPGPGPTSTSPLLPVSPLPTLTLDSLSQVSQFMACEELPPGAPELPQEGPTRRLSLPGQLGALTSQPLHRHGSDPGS
c1coc(C2Nc3ccccc3-c3nc4ccccc4n32)c1 (centres unmarked) was tested, and the “hERG current change (%, negative = inhibition) at 10uM” value was -15.6%.
With CCOc1ccc(NC(=O)c2ccccn2)cc1 the “hERG current change (%, negative = inhibition) at 10uM” value was 3.46%.
In the case of COc1cc(C(=O)NC2CCN(CC(=O)NC3CCCCC3)CC2)cc(OC)c1OC, the “hERG current change (%, negative = inhibition) at 10uM” value is reported as 19.1%.
For Cc1cc(C)cc(N(CC(=O)NCc2ccco2)C(=O)CCC(=O)Nc2nccs2)c1, the “hERG current change (%, negative = inhibition) at 10uM” value was 9.91%.
In the case of Cc1cccc(C(=O)NCC(=O)N2CCN(S(=O)(=O)/C=C/c3ccccc3)CC2)c1, the “hERG current change (%, negative = inhibition) at 10uM” value is reported as -18.5%.
CS(=O)(=O)Nc1ccccc1C(=O)N1CCN(c2ccccc2)CC1 was tested, and the “hERG current change (%, negative = inhibition) at 10uM” value was -0.636%.
With CCOC(=O)/C=C(C)\C=C\c1c[nH]c2ccccc12 the “hERG current change (%, negative = inhibition) at 10uM” value was 11.1%.
CSc1ccc(CN(C)CC(=O)NC(=O)NC(C)(C)C)cc1 was tested, and the “hERG current change (%, negative = inhibition) at 10uM” value was -3.83%.
With O=C(NCCc1ccc(Cl)cc1)c1cccnc1 the “hERG current change (%, negative = inhibition) at 10uM” value was 8.12%.
NC(=O)c1cc([N+](=O)[O-])ccc1NCC1CCCCC1 was tested, and the “hERG current change (%, negative = inhibition) at 10uM” value was -5.28%.
For O=C(/C=C/c1ccccc1)NNC(=O)C1CC1, the “hERG current change (%, negative = inhibition) at 10uM” value was -4.48%.
N#C/C(=C/c1cn(CC(=O)O)c2ccccc12)C(=O)NCc1ccccc1 was tested, and the “hERG current change (%, negative = inhibition) at 10uM” value was 16.1%.
CN1CCc2nc3sc(C#N)c(N)c3c(-c3cccs3)c2C1 was tested, and the “hERG current change (%, negative = inhibition) at 10uM” value was -56.8%.
CC(O)C(O)C(O)C(O)/C=N/NC(=O)c1ccccc1 (centres unmarked) was tested, and the “hERG current change (%, negative = inhibition) at 10uM” value was 4.37%.
CN(C)C(CNC(=O)c1cccs1)c1ccco1 (centres unmarked) was tested, and the “hERG current change (%, negative = inhibition) at 10uM” value was 0.144%.
CCCCn1c(CN2CCN(C)CC2)nc2ccccc21 was tested, and the “hERG current change (%, negative = inhibition) at 10uM” value was -67.1%.
CCC(OC(=O)c1cccs1)C(=O)NCc1ccc2c(c1)OCO2 (centres unmarked) was tested, and the “hERG current change (%, negative = inhibition) at 10uM” value was 0.891%.
With COc1ccc(-n2nc(C(=O)NCC(=O)N(C)Cc3ccccc3)c3ccccc3c2=O)cc1 the “hERG current change (%, negative = inhibition) at 10uM” value was -8.21%.
For O=C(COc1ccc(Br)cc1)N(Cc1ccccc1)c1ccccn1, the “hERG current change (%, negative = inhibition) at 10uM” value was -30.6%.
In the case of NC(=O)Cc1ccc2c(c1)[nH]c1ccccc12, the “hERG current change (%, negative = inhibition) at 10uM” value is reported as 29.4%.
COc1ccc(CC(=O)NCc2ccccc2)cc1 was tested, and the “hERG current change (%, negative = inhibition) at 10uM” value was 11.6%.
Cc1noc(C)c1C(=O)Nc1nnc(CC(C)C)s1 was tested, and the “hERG current change (%, negative = inhibition) at 10uM” value was -1.01%.
In the case of O=C(c1ccccc1F)N(Cc1nc2ccccc2c(=O)[nH]1)C1CCCC1, the “hERG current change (%, negative = inhibition) at 10uM” value is reported as 16.8%.
With CC1CCCC(NC(=O)Cn2cc([N+](=O)[O-])ccc2=O)C1C (centres unmarked) the “hERG current change (%, negative = inhibition) at 10uM” value was 2.74%.
With CCOC(=O)N1CCC(N2C(=O)c3ccccc3C2Nc2ccc(S(=O)(=O)N(CC)CC)cc2)CC1 (centres unmarked) the “hERG current change (%, negative = inhibition) at 10uM” value was -62.6%.
For Cc1ccc(Nc2c3c(nc4ncnn24)CCC3)cc1, the “hERG current change (%, negative = inhibition) at 10uM” value was -6.68%.
COC(=O)c1[nH]c2ccc(C)cc2c1NC(=O)CN1CCC(C)CC1 was tested, and the “hERG current change (%, negative = inhibition) at 10uM” value was -8.97%.
In the case of CCCN1Cc2cccc(C(N)=O)c2C1=O, the “hERG current change (%, negative = inhibition) at 10uM” value is reported as 8.93%.
O=C(NC1CCCCCC1)C1CCN(C(=O)Cc2ccccc2)CC1 was tested, and the “hERG current change (%, negative = inhibition) at 10uM” value was 8.14%.
With CC(C)N1C(=O)/C(=C\c2nc3ccccc3c(=O)n2-c2ccccc2)c2ccccc21 the “hERG current change (%, negative = inhibition) at 10uM” value was 4.14%.
In the case of C/C(N)=C(/C#N)C(=O)CSc1nnc(Nc2cccc(C)c2)s1, the “hERG current change (%, negative = inhibition) at 10uM” value is reported as 6.59%.
In the case of C=C(C)CNC(=S)N/N=C/c1ccc(NC(C)=O)cc1, the “hERG current change (%, negative = inhibition) at 10uM” value is reported as 0.277%.
For CN(C)N1C(N)=C(C#N)C(c2ccccc2Cl)C2=C1CCCC2=O (centres unmarked), the “hERG current change (%, negative = inhibition) at 10uM” value was 8.99%.
CCN(CC)CCn1c(NC(=O)c2ccccc2O)nc2ccccc21 was tested, and the “hERG current change (%, negative = inhibition) at 10uM” value was -68%.
In the case of Cc1ccccc1C(=O)Nc1ccc(-c2nc3ccc(C(=O)c4ccccc4)cc3[nH]2)cc1, the “hERG current change (%, negative = inhibition) at 10uM” value is reported as 20.3%.
In the case of COc1cccc(C2=NOC(C(=O)NCc3cccnc3)C2)c1 (centres unmarked), the “hERG current change (%, negative = inhibition) at 10uM” value is reported as 35.6%.
O=C(CCSc1ccccc1)NC1CCCC1 was tested, and the “hERG current change (%, negative = inhibition) at 10uM” value was -0.125%.
In the case of CC(C)Nc1nc(NC(C)C)nc(SCCOC(=O)Nc2ccc(Cl)cc2Cl)n1, the “hERG current change (%, negative = inhibition) at 10uM” value is reported as 7.75%.
In the case of COc1ccc(OCC(O)CNC(=O)Nc2ccc(F)cc2)cc1 (centres unmarked), the “hERG current change (%, negative = inhibition) at 10uM” value is reported as -15.5%.
For COCCN1Cc2cccc(C(=O)NCc3cccs3)c2C1=O, the “hERG current change (%, negative = inhibition) at 10uM” value was -7.13%.
For COc1ccc(OCCCCOc2ccccc2Cl)cc1, the “hERG current change (%, negative = inhibition) at 10uM” value was 15.7%.
In the case of CC(=O)c1ccccc1NC(=O)COC(=O)/C(=C/c1ccccc1)n1nnnc1C, the “hERG current change (%, negative = inhibition) at 10uM” value is reported as 7.2%.
COc1ccc2cc(CCNS(=O)(=O)c3ccc(NC(C)=O)cc3)c(=O)[nH]c2c1 was tested, and the “hERG current change (%, negative = inhibition) at 10uM” value was -9.19%.
For O=C(O)c1[nH]c2ccccc2c1-c1ccccc1, the “hERG current change (%, negative = inhibition) at 10uM” value was -2.08%.
In the case of O=S(=O)(NCc1ccc(F)cc1)c1ccc(-n2cnnn2)cc1, the “hERG current change (%, negative = inhibition) at 10uM” value is reported as -1.08%.
In the case of CC(Nc1oc(-c2ccco2)nc1C#N)c1ccccc1 (centres unmarked), the “hERG current change (%, negative = inhibition) at 10uM” value is reported as 0.139%.
With CCCC(CCC)C(=O)Nc1ccc2c(c1)N(C(=O)CN1CCN(C)CC1)c1ccccc1CC2 the “hERG current change (%, negative = inhibition) at 10uM” value was 10.8%.
In the case of COC(=O)c1ccccc1OS(=O)(=O)N(C)C, the “hERG current change (%, negative = inhibition) at 10uM” value is reported as 12.2%.
COc1cc(-c2cc(OC)c3c(C)oc(C)c3c(=O)c2)ccc1O was tested, and the “hERG current change (%, negative = inhibition) at 10uM” value was -3.77%.
With O=C(CCN1CCN(CC(=O)Nc2ccccc2F)CC1)Nc1ccccc1F the “hERG current change (%, negative = inhibition) at 10uM” value was -65.4%.
In the case of CCc1nc2nc(C)c(NS(=O)(=O)c3ccc(C4CCCCC4)cc3)c(=O)n2[nH]1, the “hERG current change (%, negative = inhibition) at 10uM” value is reported as 17.5%.
With CCSc1nnc(N(CCC(=O)O)CCC(=O)O)s1 the “hERG current change (%, negative = inhibition) at 10uM” value was 1.68%.
With CCOC(=O)c1c(C)[nH]c(C)c1C(=O)CSc1nc2ccccc2[nH]1 the “hERG current change (%, negative = inhibition) at 10uM” value was 8.29%.
For Cc1[nH]nc2c1C1(CCOC1C)C(C#N)=C(N)O2 (centres unmarked), the “hERG current change (%, negative = inhibition) at 10uM” value was 6.48%.
With c1ccc(-c2n[nH]c3ccccc23)cc1 the “hERG current change (%, negative = inhibition) at 10uM” value was 8.84%.
In the case of COc1ccc(OC)c(NC(=O)C(=O)c2cn(CC(=O)N3CCCC3)c3ccccc23)c1, the “hERG current change (%, negative = inhibition) at 10uM” value is reported as 16.3%.
Cc1cc(NC(=O)CN2CCN(c3ccc(O)cc3)CC2)no1 was tested, and the “hERG current change (%, negative = inhibition) at 10uM” value was -4.58%.
With O=C(NCC(c1ccco1)N1CCCC1)c1ccc(S(=O)(=O)Nc2ccccc2Cl)cc1 (centres unmarked) the “hERG current change (%, negative = inhibition) at 10uM” value was -11.6%.
For CCOc1cc(-c2cc(-c3ccc(OC)cc3)nc(N)c2C#N)ccc1O, the “hERG current change (%, negative = inhibition) at 10uM” value was -11.8%.
